# The whole screen tested about 50,000 compounds, of which about 800 (1.6%) showed an effect of 50% or more. This is one part of the list.
# Target: Bcl-2-like protein 10 (Homo sapiens) (UniProt Q9HD36)
# Test: TR3 peptide-Bcl-B binding displacers, biochemical primary FP assay, phenotype converters (AID 1240);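 also: 0% = Bcl-B with tracer peptide and DMSO and 100% = tracer peptide lacking Bcl-B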
# Settings: GST-Bcl-B / FITC-TR3 peptide fluorescence polarization; stronger effect = higher value; compound at 3.75 mg/L
# Chain of UniProt Q9HD36 (Q9HD36 whole entry, looked up): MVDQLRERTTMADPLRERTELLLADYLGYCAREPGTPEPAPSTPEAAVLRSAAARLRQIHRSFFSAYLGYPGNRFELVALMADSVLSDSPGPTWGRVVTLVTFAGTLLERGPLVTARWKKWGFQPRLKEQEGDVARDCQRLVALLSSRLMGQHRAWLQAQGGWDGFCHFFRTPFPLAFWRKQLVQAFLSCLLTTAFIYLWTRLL
row,SMILES,displacement [%]
1,CCOc1ccc(/C=N/NC(=O)C(=O)N(CC)CC)cc1,0.3
2,CCN(C(=O)Cc1ccc(Cl)cc1)c1ccccc1C,1.4
3,CCOC(=O)c1cc(-c2ccco2)nc2ccc(Br)cc12,33.4
4,CS(=O)(=O)N(CC(=O)Nc1cccc2ccccc12)c1ccc(Cl)cc1,21.2
5,O=C(Cc1ccc(Br)cc1)NCc1ccccc1,4.5
6,COc1ccc(NC(=O)C2C3CCC(C3)C2C(=O)O)cc1OC (stereo not drawn),-1.3
7,O=C1c2ccc([N+](=O)[O-])cc2C(=O)N1c1nccs1,1.6
8,O=C(CSc1ncccn1)NN=C1CCCC1,5.3
9,COc1ccc(S(=O)(=O)Nc2cc3c(C(C)=O)c(C)oc3c3ccccc23)cc1,-1.9
10,COc1ccccc1C(=O)Nc1ccc2oc(-c3ccncc3)nc2c1,135
11,CCOC(=O)c1c(C)nc(C)c(C(=O)OCC)c1-c1ccc(Br)cc1,3.9
12,COc1ccccc1CNC(=O)/C=C/c1ccc([N+](=O)[O-])cc1,9.6
13,CCOC(=O)C(=CNc1ccc(F)c(F)c1F)C(=O)OCC,3.1
14,Cc1ccc(/C(O)=C2\C(=O)C(=O)N(c3ccc(O)cc3)C2c2ccccc2)cc1 (stereo not drawn),14.9
15,Cc1ccc(NS(=O)(=O)c2ccc3ccccc3c2)cc1Cl,12.3
16,COc1cc(C2C(C(=O)Nc3ccccc3C)=C(C)NC3=C2C(=O)CCC3)cc(OC)c1OC (stereo not drawn),4.8
17,O=C(Nc1ccccc1I)C1CC(=O)N(c2ccc(Br)cc2)C1 (stereo not drawn),-26
18,O=C1NC(=O)/C(=C\c2ccc(Cl)cc2Cl)S1,5.5
19,COc1ccc(OC)c(C=NN2CCN(Cc3ccc(C)cc3C)CC2)c1,13
20,CC(C)c1ccc(/C=N/n2cnnc2)cc1[N+](=O)[O-],11.1
21,CCCCN1C(=O)/C(=C/C=C/c2ccccc2)SC1=S,-0.6
22,CCOc1cc(C(=S)N2CCOCC2)cc(Br)c1OC(=O)c1cccc2ccccc12,-12.3
23,Cc1cc(C)n(C(=O)CNC(=O)c2ccccc2Cl)n1,8.3

row,SMILES,displacement [%]
1,O=C1C2C3C=CC(C3=C(c3ccccc3)c3ccccc3)C2C(=O)N1c1cccc(C(F)(F)F)c1 (stereo not drawn),8.5
2,CCOC(=O)CSc1nc(N)nc(C)c1Br,2.8
3,Clc1ccc(SCCc2ccncc2)cc1Cl,1.9
4,Cc1ccc(S(=O)(=O)C(CC(=O)c2ccc(Cl)cc2)c2ccccc2)cc1 (stereo not drawn),8
5,O=c1/c(=C/c2ccc(-c3ccc(Cl)cc3)o2)sc2nc3ccccc3n12,10.9
6,COc1cc(C2C(C(=O)OCc3ccccc3)=C(C)NC3=C2C(=O)CCC3)cc(Br)c1O (stereo not drawn),8.4
7,O=c1c2c3c(sc2[nH]c(=S)n1-c1ccccc1)CCC3,-2.5
8,NNC(=O)c1cc(C2CC2)nc2ccc(Br)cc12,-4.7
9,O=C(NC(NC(=O)C(c1ccccc1)c1ccccc1)c1ccc(F)cc1)C(c1ccccc1)c1ccccc1,13.1
10,COC(=O)c1ccccc1NC(=O)CN(c1ccc(OC)cc1)S(=O)(=O)c1ccc(C)cc1,5.6
11,Cc1ccccc1NC(=O)c1c(NC(=O)c2cccs2)sc2c1CCCCC2,7.8
12,C=CCSC1=C(C#N)C2(CCCCC2)C(C#N)C(=O)N1 (stereo not drawn),3.4
13,C/C(=N/NC(=O)c1ccccc1)c1ccc(F)cc1,-13.5
14,Cc1cc(NS(=O)(=O)c2ccc(Nc3nc(-c4cccs4)cs3)cc2)no1,5.4
15,COc1cc(NC(=O)c2cccc(Cl)c2)ccc1NC(=O)c1cc2ccccc2o1,16.4
16,O=C1/C(=C/c2ccc(Cl)cc2Cl)SC(=S)N1c1ccc(Br)cc1,30.5
17,O=C1C2ON(c3ccccc3)C(c3ccccc3)C2C(=O)N1Cc1ccccc1 (stereo not drawn),5.9
18,Cc1c(-c2ccc(Cl)cc2Cl)nc2ccccc2c1C(=O)NCc1ccc2c(c1)OCO2,1.2
19,CC(C)(C)C1CCc2c(sc(NC(=O)c3ccncc3)c2C#N)C1 (stereo not drawn),-0.9
20,COc1cc(/C=N/NC(N)=O)ccc1O,-11
21,CCCCOc1ccc(NC(=O)CSCC(=O)Nc2ccc3ccccc3c2)cc1,11.2
22,COc1ccc(/C=C2\C(=O)NC(=O)N(c3ccccc3)C2=O)c2ccccc12,17.5
23,CCn1c(C(O)c2cc(OC)ccc2OC)nc2ccccc21 (stereo not drawn),-2.2

row,SMILES,displacement [%]
1,O=C(NN1C(=O)CSC1=S)c1ccccc1[N+](=O)[O-],-7.3
2,Cc1ccc(C(=O)NC(NC(=S)Nc2ccccc2Cl)C(Cl)(Cl)Cl)cc1 (stereo not drawn),-10.7
3,O=C(N/N=C/c1ccccc1Cl)c1ccccn1,-9.6
4,COc1ccccc1N1CCN(S(C)(=O)=O)CC1,-6.8
5,O=C(/C=C/Nc1ccccc1NS(=O)(=O)Cc1ccccc1)c1ccc2c(c1)OCO2,13.2
6,O=C(O)CNC(=O)/C(=C\c1cccnc1)NC(=O)c1ccccc1,-7.5
7,CS(=O)(=O)N(Cc1ccc(C(=O)N2CCc3ccccc3C2)cc1)c1ccccc1,-0.6
8,Cc1nnc(Nc2ccc3c(c2)ncn3-c2ccccc2)c2ccccc12,-1
9,c1ccc(-c2ccc(Oc3nc4ccccc4n4cnnc34)cc2)cc1,10.4
10,COc1ccc(-c2nnc(OC)c3ccccc23)cc1,-4.1
11,Cc1ccc(/C=C2\SC(=S)N(CC(C)C)C2=O)cc1,9.8
12,COc1ccc(C(=O)N2CCN(C3CCC(c4ccccc4)CC3)CC2)cc1 (stereo not drawn),-21.7
13,O=C(/C=C/c1ccc(F)cc1)Nc1cccc([N+](=O)[O-])c1,16.4
14,CCOc1ccc(N(CC(=O)Nc2ccccc2Br)S(=O)(=O)c2ccc(SC)cc2)cc1,1.7
15,Cc1cc(C)c(NC(=O)C(C)Sc2ncn[nH]2)c(C)c1 (stereo not drawn),-0.6
16,COC(=O)c1c(C)oc2ccc(OC(=O)C(C)(C)C)cc12,12.6
17,CC(=O)Nc1ccc(S(=O)(=O)Nc2ccc(I)cc2)cc1,-5.4
18,COc1ccc(/C=C(/C#N)C(=O)Nc2cccc(Br)c2)c(C)c1,25.4
19,CC(C)=CCCC(C)N(C=O)C(C)CCC=C(C)C (stereo not drawn),-10.3
20,C=CCOC(=O)C(CC=C)(C(F)(F)F)C(F)(F)F,1.8
21,Cc1ccc(-c2ccc(OCC(=O)Nc3ccccc3F)cc2)cc1,-5.1
22,Cc1ccc(C(=O)Nc2c(C(=O)NCc3ccco3)cnn2-c2ccccc2)cc1,9.9
23,O=C(CCN1C(=O)/C(=C/c2cccs2)SC1=S)Nc1cccc(F)c1,-21.4

row,SMILES,displacement [%]
1,Cc1ccc(N=C(NO)c2ccc(Cl)cc2Cl)cc1,15
2,S=C(Nc1ccccc1)Nc1ccc(Oc2ccccc2)cc1,-12
3,COc1ccc([N+](=O)[O-])cc1C1NN=C(c2ccccc2)S1 (stereo not drawn),-2.8
4,COc1cc(/C=C2/C(=O)NC(=O)N(c3ccccc3)C2=O)ccc1OCC(=O)O,6.2
5,O=C(O)C1(c2ccc3c(c2)OCCO3)CCCC1,-2.1
6,COc1cc(/C=C2/C(=N)N3N=C(C(C)C)SC3=NC2=O)cc(Cl)c1OCCOc1ccccc1,-39
7,CCOC(=O)C1=C(O)/C(=C/c2ccc(N(C)C)cc2)SC1=Nc1ccc(OC)cc1,3.8
8,Cc1cc2ncn(C(=O)c3ccc(F)cc3)c2cc1C,-10.4
9,COc1ccc(NC(=O)c2ccccc2[N+](=O)[O-])cc1Cl,-1.8
10,O=C1C2C3CC4C2C(=O)C2(c5ccccc5)C1C3C42 (stereo not drawn),1.4
11,CC1CCc2c(sc(NC(=O)COc3ccccc3C(C)(C)C)c2C(N)=O)C1 (stereo not drawn),15.1
12,COc1cccc(Oc2nc(N)[nH]c(=O)c2Br)c1,-3.3
13,O=C(c1ccco1)N(CCN(Cc1ccccc1)C(=O)c1ccco1)Cc1ccccc1,-3.7
14,O=[N+]([O-])c1cccc(S(=O)(=O)Nc2ccc(OCc3ccccc3)cc2)c1,-0.4
15,S=C(NCc1ccccc1)Nc1ccc(Cl)cc1,-5.8
16,CC1CCN(C(=S)Nc2ccccc2)CC1,-5.3
17,Cc1c(Cl)cccc1-c1ccc(C=O)o1,19.1
18,CCC(C(=O)NCc1ccccc1OC)c1ccccc1 (stereo not drawn),-7.1
19,CCOc1cc(OCC)cc(C(=O)Nc2ccc(N3CCOCC3)cc2)c1,10.2
20,COc1ccc(N2C(=O)C3C(C2=O)C2C=CC3C23CC3)cc1 (stereo not drawn),1
21,CC(/C=C/c1ccccc1)=N\Nc1nnc2c(n1)[nH]c1ccccc12,7.2
22,CC(=O)OC1=NN(c2ccccc2)CC1,3.3
23,CC(=O)N1C(=O)/C(=C/C(=O)c2ccccc2)c2ccccc21,-2.4

row,SMILES,displacement [%]
1,Clc1ccc(CN2CCN(C3CCCC3)CC2)cc1,-3.3
2,Cc1cc(/C=N/n2cnnc2)c(C)n1-c1ccc(I)cc1,7.3
3,Cc1cc(OCC(=O)Nc2ccc(NC(=O)c3ccco3)cc2)ccc1Cl,1.6
4,CCc1nnc(NC(=O)c2ccc(Cl)cc2Cl)s1,1.4
5,CC1SC(c2ccccc2)N(Cc2ccccc2)C1=O (stereo not drawn),-16.7
6,Cc1c(C(=O)Nc2ccc(Cl)cc2)cnn1-c1ccccc1,-1.2
7,Cc1ccc2[nH]c(C(=O)NN=C3CCCCC3)c(-c3ccccc3)c2c1,-47.7
8,CCN(CC)C(=O)c1sc(NC(=O)c2ccc(OC)cc2OC)c(C(=O)OC(C)C)c1C,-5.3
9,Cc1ccc(NC(=O)c2c(NC(=O)C(F)(F)F)sc3c2CCCCC3)c(C)c1,1.4
10,COc1ccc(-c2noc(COc3ccc(Br)cc3)n2)cc1,2.7
11,COc1c(Cl)ccc(Cl)c1C(=O)NCCc1nc2ccccc2[nH]1,-5.5
12,COc1ccc(C2(C)C(=O)c3ccccc3C2=O)cc1,-0.3
13,Cc1ccc(NC(=O)CC2Nc3ccccc3NC2=O)cc1Cl (stereo not drawn),-1.7
14,COc1ccc(C(=O)CC(Nc2ccc(Cl)cc2)c2ccc(Cl)cc2)cc1 (stereo not drawn),-19.3
15,COc1ccc(C2=C/C(=C\c3ccc4c(c3)OCO4)C(=O)O2)cc1,117
16,CC(c1ccccc1)C1C(C#N)=C(N)Oc2n[nH]c(-c3ccccc3)c21 (stereo not drawn),-7.7
17,O=C(Nc1cccc(Cl)c1)Nc1nnc(-c2ccncc2)s1,12.3
18,CCN(CC)c1ccc(NC(=O)c2cc3ccccc3o2)cc1,12.9
19,C/C(=N/NS(=O)(=O)c1ccccc1)c1ccc(NC(=O)C(F)(F)F)cc1,-9.7
20,CNc1ccc(Cl)cc1C(O)c1ccccc1 (stereo not drawn),14.7
21,COC(=O)c1sccc1NS(=O)(=O)c1ccc(Cl)cc1,11

# — PubChem BioAssay AID1240 (Sanford-Burnham Center for Chemical Genomics, 2008)
